Results reported in paper PMC11915835, “Enhancing the solubility of SARS-CoV-2 inhibitors to increase future prospects for clinical development” (Journal of Virology, 2025).

Assays:
HEK 293T cells = conditions: 10 µM peptide concentration
[1] = cited from earlier work

Compound	Toxicity (MTT) (HEK 293T cells)	Solubility (in words) [1]
Ac-SIDQINATFVDIEYEIKKLEEVAKKLEESYIDLKEL-NH2 [SK]	no toxicity was observed	–
CC[C@H](C)[C@H](NC(=O)[C@H](C)NC(=O)[C@H](CCC(=O)O)NC(=O)[C@H](CCC(=O)O)NC(=O)[C@H](CC(C)C)NC(=O)[C@H](CCCCN)NC(=O)[C@H](CCCCN)NC(=O)[C@H](CCSC)NC(=O)[C@H](CCC(=O)O)NC(=O)[C@H](Cc1ccc(O)cc1)NC(=O)[C@H](CCC(=O)O)NC(=O)[C@H](CC(C)C)NC(=O)[C@H](CC(=O)O)NC(=O)[C@H](CC(C)C)NC(=O)[C@H](Cc1ccccc1)NC(=O)[C@@H](NC(=O)[C@@H](NC(=O)[C@H](CC(N)=O)NC(=O)[C@@H](NC(=O)[C@H](CCC(N)=O)NC(=O)[C@H](CC(=O)O)NC(=O)[C@H](CC(C)C)NC(=O)[C@H](CO)NC(C)=O)[C@@H](C)CC)C(C)C)[C@@H](C)O)C(=O)N[C@@H](CCCCN)C(=O)N[C@@H](CCCCN)C(=O)N[C@@H](CC(C)C)C(=O)N[C@@H](CCC(=O)O)C(=O)N[C@@H](CCC(=O)O)C(=O)N[C@@H](CO)C(=O)N[C@@H](Cc1ccc(O)cc1)C(=O)N[C@H](C(=O)N[C@@H](CC(=O)O)C(=O)N[C@@H](CC(C)C)C(=O)N[C@@H](CCCCN)C(=O)N[C@@H](CCC(=O)O)C(=O)N[C@@H](CC(C)C)C(N)=O)[C@@H](C)CC [EK1, reference compound]	–	high solubility
